Source: article PMC4336329 (PLoS ONE, 2015)
The whole screen tested about 310,000 compounds, of which about 14,000 (4.5%) showed an effect of 50% or more. Effects have a minus sign here. This is one part of the list.

These compounds were tested against human ether-à-go-go-related gene (hERG) potassium channel (human, UniProt Q12809) (assay: primary screen, population patch clamp on CHO cells stably expressing hERG).
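Also: peak tail current of the secondary pulse compared with the same well before compound.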

Chain of human ether-à-go-go-related gene (hERG) potassium channel (Q12809 whole entry, looked up): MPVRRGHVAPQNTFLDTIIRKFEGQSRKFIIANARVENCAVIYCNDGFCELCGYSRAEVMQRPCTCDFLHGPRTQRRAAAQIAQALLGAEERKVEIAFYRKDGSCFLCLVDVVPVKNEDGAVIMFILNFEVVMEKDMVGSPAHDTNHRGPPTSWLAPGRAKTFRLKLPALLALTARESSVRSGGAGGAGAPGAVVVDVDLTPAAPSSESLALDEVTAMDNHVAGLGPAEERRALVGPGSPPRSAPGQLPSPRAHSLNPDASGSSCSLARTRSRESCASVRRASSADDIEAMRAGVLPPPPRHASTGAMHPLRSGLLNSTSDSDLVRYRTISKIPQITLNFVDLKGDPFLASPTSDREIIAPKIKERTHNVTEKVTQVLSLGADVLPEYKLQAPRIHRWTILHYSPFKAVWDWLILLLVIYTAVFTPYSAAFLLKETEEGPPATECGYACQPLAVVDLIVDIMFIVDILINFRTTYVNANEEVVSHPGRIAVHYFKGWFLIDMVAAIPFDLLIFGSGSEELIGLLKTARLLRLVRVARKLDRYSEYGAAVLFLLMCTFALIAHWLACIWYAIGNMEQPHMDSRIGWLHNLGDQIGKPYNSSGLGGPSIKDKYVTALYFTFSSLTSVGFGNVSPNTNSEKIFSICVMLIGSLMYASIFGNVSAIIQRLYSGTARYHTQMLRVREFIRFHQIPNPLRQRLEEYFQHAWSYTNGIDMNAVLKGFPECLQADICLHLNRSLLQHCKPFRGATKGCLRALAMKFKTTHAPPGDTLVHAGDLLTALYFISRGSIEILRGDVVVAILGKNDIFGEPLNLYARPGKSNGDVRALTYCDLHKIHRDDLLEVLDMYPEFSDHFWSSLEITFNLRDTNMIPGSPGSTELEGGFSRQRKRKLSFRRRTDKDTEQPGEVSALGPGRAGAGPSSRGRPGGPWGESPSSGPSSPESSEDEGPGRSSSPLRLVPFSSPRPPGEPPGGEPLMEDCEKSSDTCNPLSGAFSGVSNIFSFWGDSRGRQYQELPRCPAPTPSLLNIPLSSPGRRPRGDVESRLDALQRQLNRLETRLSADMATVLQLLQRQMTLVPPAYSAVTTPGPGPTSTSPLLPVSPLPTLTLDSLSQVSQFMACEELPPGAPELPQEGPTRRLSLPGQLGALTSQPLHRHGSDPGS

Row | SMILES | hERG current change (%, negative = inhibition) at 10uM
1 | CC1(C)C(=O)OC(c2cc(Br)ccc2O)C(C)(C)C1=O (centres unmarked) | -0.382%
2 | CCCn1nnnc1NC(=O)COc1ccc(CC)cc1 | -3.02%
3 | CC(C)(Cc1ccc(O)cc1)NC(=O)c1ccccc1 | -2.85%
4 | Cc1ncc(CN2CCCC(C(=O)Nc3ccc(-n4ccnc4C)cc3)C2)cn1 (centres unmarked) | 12.8%
5 | C=CCOc1ccc(/C=C/C(=O)OCC(=O)NCc2cccc(OC)c2)cc1 | 3.49%
6 | Cc1ccc(-n2nnnc2C(Cl)(Cl)c2nnnn2-c2ccc(C)cc2)cc1 | -10.4%
7 | CCOC(=O)Cn1c(=N)n(CCOc2ccc3ccccc3c2)c2ccccc21.Cl | -75.3%
8 | CCC(C)N(CC(=O)NCc1ccc(OC)cc1)C(=O)c1csnn1 (centres unmarked) | -18.3%
9 | Cc1ccc(C2=NCC(=O)Nc3ccc(Br)cc32)cc1 | -17.1%
10 | COc1cc(CCC(C)=O)ccc1OC(=O)c1c(F)cccc1Cl | -24.7%
11 | CS(=O)(=O)N(CC(=O)N1CCc2ccccc2C1)c1cccc(Br)c1 | -37.3%
12 | Cc1c(NC(=O)c2cc(=O)[nH]c3ccccc23)c(=O)n(-c2ccccc2)n1C | 10.5%
13 | CCOC(=O)c1ccc(CNCc2ccccc2)cc1 | -4.92%
14 | COCCNC(=O)C(Cc1c[nH]c2ccccc12)NC(=O)OCc1ccccc1 (centres unmarked) | -4.52%
15 | COC(=O)c1ccc(OCC(=O)c2ccc(C)c(C)c2)cc1 | 9.9%
16 | CCc1ccc(Nc2cc(C)nc3nc(C)nn23)cc1 | -28.8%
17 | CCC/C(=N\NC(=O)c1ccccc1C)c1ccccc1 | 3%
18 | O=[N+]([O-])c1c(Nc2cccc(O)c2)cc(Cl)c2nonc12 | -23.2%
19 | O=C(COC(=O)c1ccc(O)cc1)Nc1ccc(OC(F)F)cc1 | -32.3%
20 | Cc1cc(OCC(=O)N2CCCC2)cc(C)c1Cl | -10.5%

Row | SMILES | hERG current change (%, negative = inhibition) at 10uM
21 | O=C(Nc1ccc(Cl)cc1)N1CCC(c2nc(-c3ccc(F)cc3)no2)CC1 | 3.09%
22 | COc1ccc(C(c2nnnn2C2CCCCC2)N2CCN(C)CC2)c(OC)c1 (centres unmarked) | -4.87%
23 | COc1ccc(-c2cn[nH]c2-c2ccc(O)cc2O)cc1OC | 9.8%
24 | CCN(C(=O)CSc1nnc(-c2ccncc2)o1)c1ccccc1 | 3.61%
25 | Cc1ccc(N2C(=O)C(Cl)=C(N3CCCCCC3)C2=O)cc1 | 17.1%
26 | CCOC(=O)N1CCC(N(C(=O)Nc2ccc(CC)cc2)C(C)CC)CC1 (centres unmarked) | -16.9%
27 | CCOc1ccc(CC2CCC(=O)NC2=O)cc1 (centres unmarked) | 3.09%
28 | CC(=O)NC1(c2ccccc2)CCN(c2nc(C)cc(C)n2)CC1 | 17.8%
29 | Clc1ccc(N2CCN(/N=C/c3ccncc3)CC2)cc1 | -7.28%
30 | CCOc1ccc(S(=O)(=O)N/N=C(\C)C2CCCCC2)cc1 | -5.56%
31 | CCCCCCCCCCn1cc(C(C)=O)c(=O)[nH]c1=O | 2.98%
32 | C=CCn1c(SCC(=O)N(C)C)nc2sc3c(c2c1=O)CCC3 | -29.8%
33 | COc1ccc(C(=O)NC(=S)NNC(=O)CCc2ccccc2)cc1 | 22.6%
34 | CC(C)N(Cc1nccn1C)C(=O)CC1C(=O)NCCN1Cc1ccccc1C(F)(F)F (centres unmarked) | 4.73%
35 | CCn1c(SCc2ccc(F)cc2)nnc1-c1nn(-c2ccccc2)ccc1=O | -35.1%
36 | CS(=O)(=O)N(CC(=O)N/N=C/c1ccccc1C(=O)O)c1cccc(Cl)c1Cl | -2.53%
37 | CN(C)C(=O)COC(=O)c1cccc(S(=O)(=O)N2CC3(C)CC2CC(C)(C)C3)c1 (centres unmarked) | -40.9%
38 | CCc1ccc(-c2cc(C(=O)NN3CCOCC3)c3ccccc3n2)cc1 | -11.9%
39 | CC(=O)N1Cc2cc([N+](=O)[O-])ccc2Oc2ccccc21 | -17.7%
40 | CCC(CO)NCc1ccccc1OC(C)C.Cl (centres unmarked) | 11.7%

Row | SMILES | hERG current change (%, negative = inhibition) at 10uM
41 | O=S(=O)(c1ccccc1)N1CN(Cc2ccc(F)cc2)c2nc3ccccc3nc21 | -15.6%
42 | Cc1ccc(NC(=O)CN(C)S(=O)(=O)c2cnc[nH]2)cc1C | 12.1%
43 | O=C(Nc1cccc([N+](=O)[O-])c1)N1CCc2ccccc2C1 | -25.7%
44 | C[C@@H](CN1C(=O)C(=O)NC[C@@H]1C)NC(=O)CC12CC3CC(CC(C3)C1)C2 | 11.7%
45 | Cc1onc(-c2ccccc2)c1-c1n[nH]c(=S)n1-c1ccc(C(=O)O)cc1 | 22.4%
46 | O=C(Nc1cccnc1)c1ccc(COc2ccccc2Br)o1 | 20.1%
47 | Cc1cccc(NC(=S)NCc2ccco2)n1 | -9.92%
48 | CC(C)(CO)NCC(O)Cn1cc(C=O)c2ccccc21 (centres unmarked) | 23.9%
49 | Fc1ccc(F)c(CNc2ncnc3cc(Cl)ccc23)c1 | 19%
50 | Cc1ccsc1C(=O)NNC(=O)C1CC=CCC1C(=O)O (centres unmarked) | 5.83%
51 | COc1cc2[nH]c(=S)n(NC(=O)CC(C)C)c(=O)c2cc1OC | 11.7%
52 | Brc1ccc(-c2nn[nH]n2)cc1 | 11.2%
53 | O=C(Nc1ccccc1)/C(=C\c1ccc2c(c1)OCO2)NC(=O)c1ccco1 | 4.18%
54 | Cc1ccc(S(=O)(=O)CCC(=O)OCC(=O)NCC(=O)Nc2c(C)cc(C)cc2C)cc1 | -2.42%
55 | Cc1ccc(S(=O)(=O)O/N=C2\CCCc3ccccc32)cc1 | 9.76%
56 | O=C(NC(=S)N1CCN(c2ccc([N+](=O)[O-])cc2)CC1)c1ccc(F)cc1 | -58.5%
57 | S=C(Nc1ccc(Cl)cc1)N1CCN(C2CCCCC2)CC1 | -10.4%
58 | C=CCNC(=S)NCc1ccccc1 | 6.59%
59 | CCOC(=O)NN1C(=O)c2ccccc2NC1C (centres unmarked) | -5.76%
